{
  "source": "PubChem BioAssay AID1458",
  "about": "(National Center for Advancing Translational Sciences (NCATS), 2008)",
  "note": "Out of some 210,000 compounds screened, about 5,900 (2.8%) were called active. This list was built around the results that the source calls inconclusive (neither active nor inactive); the mix of calls is not that of the screen. Calls follow the shape of the dose curve; as a rule, active = well fitted activation curve with a large enough effect; inconclusive = small, poorly fitted or top-dose-only effect; inactive = no such curve, though single readings can be large or run the other way. A potency beside an inconclusive call is a rough fit, not a confirmed value. Potency is read from the fitted curve at half-maximal effect; tags tell the direction and shape of the fitted curve.",
  "data": [
    {"assay": "qHTS Assay for Enhancers of SMN2 Splice Variant Expression; also: nearly all actives have a fitted effect of over 55% in size; as to activity change, positive = activation: % of control where 0% means no effect", "details": "HEK293 SMN2-luciferase splicing reporter, luminescence, 30-36 h; activity change, positive = activation: at 46.1 µM (top of the series)", "in_short": "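HEK293 cells carry an SMN2 minigene-luciferase reporter in which exon 7 inclusion puts luciferase in frame. Cells were seeded at 2000 cells/well, attached for 10-12 hours, then exposed to compounds for 30-36 hours at 37C before ONE-Glo luminescence.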", "values": [
      {"smiles": "COc1ccc(CCNC(=O)CCCn2c(=O)c3ccccc3n(Cc3ccc(F)cc3Cl)c2=O)cc1OC", "Potency": "inconclusive: 0.251 µM [activator, full curve]"},
      {"smiles": "Cc1ccccc1OCc1nnc(SCC(=O)Nc2ccc3c(c2)oc2ccccc23)n1C", "Potency": "inconclusive: 4.47 µM [activator, full curve]"},
      {"smiles": "Cc1ccc(-c2csc(=Nc3ccccc3)n2Cc2ccc3c(c2)OCO3)cc1C", "Potency": "inconclusive: 22.4 µM [activator, partial curve, poor fit]"},
      {"smiles": "O=c1cc(/C=C/c2ccccc2)oc2c1ccc1ccccc12", "Potency": "inactive"},
      {"smiles": "Cc1ncc(CC(=O)n2cc(C(=O)c3cc(F)ccc3O)cn2)s1", "Potency": "inactive"},
      {"smiles": "Cc1ccc2oc(-c3ccc(C)c(NC(=O)c4ccc(C(C)(C)C)cc4)c3)nc2c1", "Potency": "inactive"},
      {"smiles": "Cc1ccsc1/C=N/n1c(COc2ccccc2)n[nH]c1=S", "Potency": "inactive"},
      {"smiles": "CC(=O)Nc1ccccc1C(=O)C(=O)Nc1cccc(Br)c1", "Potency": "inactive"},
      {"smiles": "Cc1nc2ccc(S(=O)(=O)Nc3cccc(-c4nc5cccnc5s4)c3C)cc2s1", "Potency": "inactive"},
      {"smiles": "COc1ccc(CC(=O)N(C)C2CCCCC2)cc1S(=O)(=O)N1CCOCC1", "Potency": "inactive"},
      {"smiles": "CN1CCCC2(CCN(C(=O)c3cc(C(F)(F)F)cc(C(F)(F)F)c3)CC2)C1", "Potency": "inactive"},
      {"smiles": "O=C(NCCC1=CCCCC1)C1CC(=O)N(C2CCCCCC2)C1", "note": "(stereo not given)", "Potency": "inconclusive: 0.355 µM [activator, full curve, poor fit]"},
      {"smiles": "Cc1c(C(N)=O)sc2ncn(CC(=O)N3CCC(C)CC3)c(=O)c12", "Potency": "inconclusive: 0.0178 µM [activator, full curve, poor fit]"},
      {"smiles": "Brc1ccc(-c2cn3cccnc3n2)cc1", "Potency": "active: 7.94 µM"},
      {"smiles": "COc1cccc(N=c2oc3ccccc3cc2-c2nc3ccccc3[nH]2)c1", "Potency": "active: 15.8 µM"},
      {"smiles": "OC1(c2ccc(F)cc2)CCN(Cc2nnnn2Cc2cccs2)CC1", "Potency": "inconclusive: 0.01 µM [activator, full curve, poor fit]"},
      {"smiles": "CCSC1=C(C#N)C(c2ccc(OC)c(OC)c2)CC(=O)N1", "note": "(stereo not given)", "Potency": "inconclusive: 5.01 µM [activator, partial curve, poor fit]"},
      {"smiles": "NS(=O)(=O)c1ccc(CCNc2nc3c(-c4cccc(F)c4)nnn3c3ccccc23)cc1", "Potency": "inactive"},
      {"smiles": "Cc1cc(C)n2nc(C(=O)OCC(=O)Nc3ccc4c(c3)OCO4)nc2n1", "Potency": "inactive"},
      {"smiles": "CC(=O)NC1=NC(=O)/C(=C/c2cn(C(C)=O)nc2-c2ccccc2)S1", "Potency": "inactive"},
      {"smiles": "CC(C)NC(=O)c1onc(CSc2ccc(C(C)C)cc2)c1C(=O)O", "Potency": "inconclusive: 35.5 µM [activator, single point]"},
      {"smiles": "COc1cc(O)ccc1-c1nc2cc(C)ccn2c1Nc1ccccc1C", "Potency": "inconclusive: 20 µM [activator, partial curve, poor fit]"},
      {"smiles": "COC(=O)c1ccc(C(NC(=O)OCc2ccccc2)/C(=C/[C@@H](C)C(=O)Nc2ccc(OC)cc2)c2cccnc2)cc1", "note": "(stereo not given in full)", "Potency": "inactive"},
      {"smiles": "CC(CNC(=O)c1csc2c1CCCCC2)c1ccccc1", "note": "(stereo not given)", "Potency": "active: 11.2 µM"},
      {"smiles": "O=C(NCc1cccnc1)c1cc(-c2ccccc2)on1", "Potency": "active: 15.8 µM"},
      {"smiles": "CCN=C(Nc1ccc2c(c1)OCO2)SC1CC(=O)N(c2ccccc2F)C1=O", "note": "(stereo not given)", "Potency": "inactive"},
      {"smiles": "COc1ccc(C2=NC(c3ccccc3)CO2)cc1", "note": "(stereo not given)", "Potency": "inconclusive: 35.5 µM [activator, single point]"},
      {"smiles": "CC(=O)Nc1cccc(NC(=O)Nc2ccc(C)c(Cl)c2)c1", "Potency": "inconclusive: 35.5 µM [activator, single point]"},
      {"smiles": "c1ccc(-c2noc(C34CC5CC(CC(C5)C3)C4)n2)nc1", "Potency": "active: 12.6 µM"},
      {"smiles": "O=C(c1ccco1)N1CCN(c2ccnc3cc(Cl)ccc23)CC1", "Potency": "inactive"},
      {"smiles": "CN(CC(=O)Nc1cccnc1)S(=O)(=O)c1cc(Cl)ccc1Cl", "activity change, positive = activation": "inconclusive: 31% [activator]"},
      {"smiles": "Cc1ccc(/C=N/Nc2nncc(-c3ccccc3)n2)o1", "Potency": "inconclusive: 12.6 µM [activator, partial curve]"},
      {"smiles": "Cc1ccccc1-n1nnc2c(=O)oc3ccccc3c21", "Potency": "inconclusive: 3.55 µM [activator, single point]"},
      {"smiles": "Cc1ccc(-c2cc(C(=O)Nc3c(C#N)cnn3C)no2)cc1", "Potency": "inconclusive: 12.6 µM [activator, partial curve]"},
      {"smiles": "CN1CC[C@@]2(CCCN(S(=O)(=O)c3ccccc3)C2)C1", "Potency": "inactive"},
      {"smiles": "CC(=O)N1CC=CC1(CC(C)C)C(=O)NCC1CC1", "note": "(stereo not given)", "Potency": "inconclusive: 12.6 µM [activator, single point]"},
      {"smiles": "O=C(Nc1nncs1)C1COc2ccccc2O1", "note": "(stereo not given)", "Potency": "inconclusive: 6.31 µM [activator, partial curve, poor fit]"},
      {"smiles": "CC1(C)Cc2ccccc2-c2nnc(-c3ccccc3)n21", "Potency": "inactive"},
      {"smiles": "N#Cc1c(Cl)nsc1NN", "Potency": "inactive"},
      {"smiles": "COc1ccc(C(=O)Nc2ccc(C3=NNC(=O)CC3C)cc2NC(=O)c2ccc(OC)cc2)cc1", "note": "(stereo not given)", "Potency": "inconclusive: 31.6 µM [activator, single point]"},
      {"smiles": "Cc1cccc(C)c1N(CC(O)Cn1c2ccccc2c2ccccc21)S(C)(=O)=O", "note": "(stereo not given)", "Potency": "inconclusive: 0.891 µM [activator, single point]"},
      {"smiles": "C[C@H](O)Cn1cnc2c1c(=O)n(C)c(=O)n2C", "Potency": "inactive"},
      {"smiles": "COc1ccc(NC(=O)CCNS(=O)(=O)c2cccc3nonc23)c(OC)c1", "Potency": "inconclusive: 6.31 µM [activator, single point]"},
      {"smiles": "O=C(CN1C(=O)COCC1=O)N1CCOCC1", "Potency": "inconclusive: 0.0032 µM [activator, full curve, poor fit]"},
      {"smiles": "Cc1cc(-c2nc3ncccc3o2)ccc1N", "Potency": "active: 11.2 µM"},
      {"smiles": "CC1C(=O)NN=C1C(=O)N/N=C/c1cccs1", "note": "(stereo not given)", "Potency": "inactive"},
      {"smiles": "CCOc1ccc(NC(=O)COC(=O)c2ncc(Cl)c(Cl)c2Cl)cc1", "Potency": "inconclusive: 14.1 µM [activator, partial curve, poor fit]"},
      {"smiles": "CCCn1c(=S)[nH]c2cc(C(=O)N3CCN(c4ccccc4OC)CC3)ccc2c1=O", "Potency": "inconclusive: 35.5 µM [activator, single point]"},
      {"smiles": "O=C(Nc1cccc(F)c1)N1CCCC2(CCN(C(=O)c3ccncc3)CC2)C1", "Potency": "inactive"},
      {"smiles": "O=[N+]([O-])c1ccc(Cl)c(/C=N/N2CCN(Cc3ccc(Cl)cc3)CC2)c1", "Potency": "inactive"}
    ]}
  ]
}
